Assay results reported in PubChem BioAssay (NCATS).
This list was built around the results that the source calls inconclusive (neither active nor inactive); the mix of calls is not that of the screen. For part of these data: No potency is given beside an inconclusive call; the fits are too rough. The source made the active and inactive calls. Unless noted, the call rests on the fitted dose curve; in most records, active means well fitted curve in the direction sought with a large enough effect; inconclusive means small, poorly fitted or top-dose-only effect, or another doubt; inactive means no such curve, though single readings can be large; an effect the other way counts as inactive or inconclusive.

Assays:
[1] = target: Cytochrome P450 2C9 (Homo sapiens) (UniProt P11712); assay: Cytochrome P450 family 2 subfamily C member 9 (CYP2C9) small molecule antagonists: luciferase biochemical (cell-free) qHTS assay (AID 1645842; active means well fitted curve in the direction sought with a large enough effect in the repeat runs; inconclusive means weak or mixed curves; inactive means no such curve, though single readings can be large; an effect the other way counts as inactive or inconclusive; further: potency means the concentration at half of the fitted maximal effect; nearly all actives have a fitted effect of over 55% in size)
Outline: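 Luminescence, after 20 min with luciferin detection reagent, reflected CYP2C9 turnover during a 1 h NADPH-driven reaction at 37C. Enzyme-substrate mix contained 0.4% bovine serum albumin and was preincubated with compound 10 min at room temperature.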

[2] = Primary qHTS for inhibitors of nuclear receptor binding SET domain protein 2 (NSD2) in an RCH-ACV wild type WT cells (2C) (AID 1645877); settings: activity change, negative = cell killing: at 44.9 µM (top of the series) unless noted; further: nearly all actives have a fitted effect of over 70% in size; further: potency means the concentration at half of the fitted maximal effect; on activity change, negative = cell killing: on the % scale 0 is the no-effect control and ±100 the full control effect
HEK293 = assay: Cytotoxic Profiling of Annotated Libraries Using Quantitative High-Throughput Screening (AID 1296008); settings: Five cell lines viability, CellTiter-Glo ATP luminescence, 48-72 h; max response: hits give low values; further: nearly all actives have a fitted effect of over 60% in size; further: potency means the concentration at half of the fitted maximal effect; on max response: on the % scale 0 is the no-effect control and ±100 the full control effect
Outline: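 Cytotoxicity was measured as CellTiter-Glo ATP luminescence, read after 10 min at room temperature. Compound treatment of the cells lasted 48 or 72 hr at 37 degrees Celsius in a qHTS format.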

Tov112D = assay: Primary qHTS to identify gynecologic anti-cancer compounds using libraries of approved drugs and bioactive compounds (AID 1345084); settings: Gynecologic cancer cell panel viability, ATPlite luminescence, 48 h; series mostly up to 57.5 µM; further: potency means the concentration at half of the fitted maximal effect; nearly all actives have a fitted effect of over 55% in size
Outline: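 Cells, 1,000 per well, were allowed to settle for 16 h at 37 C before compound addition. Five concentrations were tested for 48 h, and viability was read by ATPlite luminescence after 15 min at room temperature.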

[3] = qHTS of pediatric cancer cell lines to identify multiple opportunities for drug repurposing: Primary screen for control Hh wild type fibroblast cells (AID 1347106);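 further: on the % scale 0 is the no-effect control and ±100 the full control effect; a drop in luminescence marks cytotoxicity and a rise apparent proliferation; nearly all actives have a fitted effect of over 55% in size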
Outline: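 Viability after 48 h compound treatment at 37C, 500-1,000 cells/well, read as ATP luminescence with CellTiter-Glo. Primary screens used 11-point (MIPE, 0.78 nM-46 µM) or 8-point (NPC, 0.59 nM-46 µM) final concentrations; follow-up screens used 11-point dilutions.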

[4] = Primary qHTS for inhibitors of nuclear receptor binding SET domain protein 2 (NSD2) in an isogenic RCH-ACV NSD2 p.E1099K mutant (9B) (AID 1645876); further: potency means the concentration at half of the fitted maximal effect; nearly all actives have a fitted effect of over 70% in size
[5] = Drug repurposing screens with cells derived from glioblastoma tumor samples (AID 1345199); settings: GBM patient neurospheres viability, ATP luminescence, 48 h; Potency: tumour line A unless noted; activity, negative = cell killing: at 46 µM (top of the series), tumour line A unless noted; further: potency means the concentration at half of the fitted maximal effect; nearly all actives have a fitted effect of over 40% in size
Outline: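 Four patient lines of CD133+ GBM neurospheres were screened at several concentrations; hits were retested in those lines plus three slower-growing GBM lines, using 48-hour treatment and ATP-based viability.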
Tags describe the fitted curve by direction and shape.

Sequence of UniProt P11712 (P11712 whole entry, looked up): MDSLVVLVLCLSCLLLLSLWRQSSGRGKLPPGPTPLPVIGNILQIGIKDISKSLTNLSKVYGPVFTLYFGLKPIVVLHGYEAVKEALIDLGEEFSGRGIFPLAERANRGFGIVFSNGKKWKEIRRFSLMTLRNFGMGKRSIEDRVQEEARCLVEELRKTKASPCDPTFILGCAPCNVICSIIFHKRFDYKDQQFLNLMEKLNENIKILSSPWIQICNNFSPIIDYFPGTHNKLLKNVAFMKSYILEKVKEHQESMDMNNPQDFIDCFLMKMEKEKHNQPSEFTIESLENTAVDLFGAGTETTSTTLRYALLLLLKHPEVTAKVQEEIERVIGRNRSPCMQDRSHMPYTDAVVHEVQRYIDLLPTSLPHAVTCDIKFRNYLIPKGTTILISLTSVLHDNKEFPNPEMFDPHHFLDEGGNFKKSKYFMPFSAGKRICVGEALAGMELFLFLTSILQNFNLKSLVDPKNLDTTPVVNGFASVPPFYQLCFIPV

Row | Compound | Potency [1] | Potency [2] | Potency (HEK293) | Potency (Tov112D) | Potency [3] | Potency [4] | max response (HEK293) | Potency [5]
1 | O=C(NCC1(N2CCN(c3ccccc3)CC2)CCOCC1)c1cccnc1Sc1ccccc1 | active: 3.79 µM | inactive | inconclusive [inhibitor, single point] | inconclusive [cytotoxic, single point] | – | – | – | –
2 | C=CCOc1ccccc1OCC(O)CNC(C)C (centres undefined) | – | inconclusive [inhibitor, single point] | – | – | inactive | inconclusive [inhibitor, single point] | inactive: 3.92% | inconclusive [inhibitor, partial curve, poor fit]
